Experimental data as given in the supplement of paper PMC8728848.
The other results are listed elsewhere or left out.

Tests used:
Experiment in all cases: glycan array binding signal (z-score within array); higher = stronger binding
Settings in all cases: glycan notation: IUPAC condensed, linker removed
[1] = molecular target: Neu5Gc(a2-8)Neu5Gc(a2-3)Gal(b1-4)GlcNAc(b1-3)Gal(b1-4)GlcNAc
Outline: (§1)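 Negative Z-scores can be read as non-binding. The Z-score is calculated within each array and then averaged across arrays of one protein sequence at different concentrations or buffers and across linkers. Arrays, 3228 in all, were curated from the Consortium for Functional Glycomics database and kept only where the protein sequence was available.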

[2] = molecular target: Neu5Gc(a2-8)Neu5Gc(a2-6)Gal(b1-4)GlcNAc
Outline: as §1

[3] = molecular target: Neu5Gc(b2-6)Gal(b1-4)GlcNAc
Outline: as §1

B1: LICBM33A (Lactococcus lactis), Q9CE94 (protein)
chain: MKKLLTGLLVAAGLLSVSLLIKTDTVSAHGYVQSPPARGYQGQLDSQSLGWTAAFNIYGNVISNPQSLEAPKGFPECGPADGRIASANGGLGQIGDFVLDNQTSSRWKKTSISTGSNIFTWKYTAPHKTTKWHYYMTKTGWDQNAPLKHSELELIGTINHDGSPATNNLSHTINIPTDRSGYHIVLAVWDVADTSNAFYNVIDINVNNKNASSQVFGPFL
Q: Which results are given for B1?
A: glycan array binding signal (z-score) [1]: 0.409; glycan array binding signal (z-score) [2]: -0.539; glycan array binding signal (z-score) [3]: -0.197
